Drawing on US9714221B1 (priority 2016, dated 2017), this text covers IC50 for 30 molecules.

For the test, the system named is MCF7 cells (breast tumor cells) WT. The experiment in a line: cells. The following applies: Homo sapiens, read-out: proliferation MCF7 (WT) IC50 (nM).
With `O=C(O)c1ccc2c(c1)CCCC(c1ccccc1Cl)=C2c1ccc(O[C@H]2CCN(CCCF)C2)cc1` [Example 210, 6-(2-chlorophenyl)-5-[4-[(3S)-1-(3-fluoropropyl)pyrrolidin-3-yl]oxyphenyl]-8,9-dihydro-7H-benzo[7]annulene-2-carboxylic acid], the IC50 was 0.5 nM.
With `COc1ccc(C2=C(c3ccc(O[C@H]4CCN(CCCF)C4)cc3)c3ccc(O)cc3CCC2)c(F)c1` [Example 29, 6-(2-fluoro-4-methoxy-phenyl)-5-[4-[(3S)-1-(3-fluoropropyl)pyrrolidin-3-yl]oxyphenyl]-8,9-dihydro-7H-benzo[7]annulen-2-ol] the figure was 0.5 nM.
With `CS(=O)(=O)c1ccc(C2=C(c3ccc(O[C@H]4CCN(CCCF)C4)cc3)c3ccc(O)cc3CCC2)c(F)c1` [Example 182, 6-(2-fluoro-4-methylsulfonyl-phenyl)-5-[4-[(3S)-1-(3-fluoropropyl)pyrrolidin-3-yl]oxyphenyl]-8,9-dihydro-7H-benzo[7]annulen-2-ol], the IC50 was found to be 0.3 nM.
As for `Oc1ccc2c(c1)CCCC(c1ccc(OC(F)F)nc1)=C2c1ccc(O[C@H]2CCN(CCCF)C2)cc1` [Example 87, 6-[6-(difluoromethoxy)-3-pyridyl]-5-[4-[(3S)-1-(3-fluoropropyl)pyrrolidin-3-yl]oxyphenyl]-8,9-dihydro-7H-benzo[7]annulen-2-ol], the figure is 0.1 nM; as for `COc1ccc(C2=C(c3ccc(O[C@H]4CCN(CCCF)C4)cc3)c3ccc(O)cc3CCC2)cc1` [Example 76, 5-[4-[(3S)-1-(3-fluoropropyl)pyrrolidin-3-yl]oxyphenyl]-6-(4-methoxyphenyl)-8,9-dihydro-7H-benzo[7]annulen-2-ol], 0.2 nM.
As to `CCOc1ccc(C2=C(c3ccc(O[C@H]4CCN(CCCF)C4)cc3)c3ccc(O)cc3CCC2)cc1Cl` [Example 95, 6-(3-chloro-4-ethoxy-phenyl)-5-[4-[(3S)-1-(3-fluoropropyl)pyrrolidin-3-yl]oxyphenyl]-8,9-dihydro-7H-benzo[7]annulen-2-ol], the IC50 amounted to 0.5 nM.
Consider `CCOc1cc(F)c(C2=C(c3ccc(O[C@H]4CCN(CCCF)C4)cc3)c3ccc(O)cc3CCC2)cc1F` [Example 62, 6-(4-ethoxy-2,5-difluoro-phenyl)-5-[4-[(3S)-1-(3-fluoropropyl)pyrrolidin-3-yl]oxyphenyl]-8,9-dihydro-7H-benzo[7]annulen-2-ol], for which the IC50 stood at 0.4 nM.
For `CC(C)c1ccccc1C1=C(c2ccc(O[C@H]3CCN(CCCF)C3)cc2)c2ccc(O)cc2CCC1` [Example 56, 5-[4-[(3S)-1-(3-fluoropropyl)pyrrolidin-3-yl]oxyphenyl]-6-(2-isopropylphenyl)-8,9-dihydro-7H-benzo[7]annulen-2-ol], the IC50 was found to be 0.5 nM.
For `Oc1ccc2c(c1F)CCCC(c1ccc(C(F)(F)F)cc1)=C2c1ccc(O[C@H]2CCN(CCCF)C2)cc1` [Example 124, 1-fluoro-5-[4-[(3S)-1-(3-fluoropropyl)pyrrolidin-3-yl]oxyphenyl]-6-[4-(trifluoromethyl)phenyl]-8,9-dihydro-7H-benzo[7]annulen-2-ol], the IC50 was found to be 0.3 nM.
As for `COc1ncc(C2=C(c3ccc(O[C@H]4CCN(CCCF)C4)cc3)c3ccc(O)cc3CCC2)cc1C` [Example 101, 5-[4-[(3S)-1-(3-fluoropropyl)pyrrolidin-3-yl]oxyphenyl]-6-(6-methoxy-5-methyl-3-pyridyl)-8,9-dihydro-7H-benzo[7]annulen-2-ol], the figure is 0.8 nM.
Regarding `Oc1ccc2c(c1)CCCC(c1ccc3occc3c1)=C2c1ccc(O[C@H]2CCN(CCCF)C2)cc1` [Example 28, 6-(benzofuran-5-yl)-5-[4-[(3S)-1-(3-fluoropropyl)pyrrolidin-3-yl]oxyphenyl]-8,9-dihydro-7H-benzo[7]annulen-2-ol], the IC50 worked out at 0.2 nM.
For the molecule `Cc1c(Cl)cccc1C1=C(c2ccc(O[C@H]3CCN(CCCF)C3)cc2)c2ccc(O)cc2CCC1` [Example 7, 6-(3-chloro-2-methyl-phenyl)-5-[4-[(3S)-1-(3-fluoropropyl)pyrrolidin-3-yl]oxyphenyl]-8,9-dihydro-7H-benzo[7]annulen-2-ol], the IC50 was 0.2 nM.
As for `Oc1ccc2c(c1)CCCC(c1ccccc1Cl)=C2c1ccc(O[C@H]2CCN(CCCF)C2)cc1` [Example 58, 6-(2-chlorophenyl)-5-[4-[(3S)-1-(3-fluoropropyl)pyrrolidin-3-yl]oxyphenyl]-8,9-dihydro-7H-benzo[7]annulen-2-ol], the figure is 0.3 nM; as for `Oc1ccc2c(c1)CCCC(c1ccc3c(c1)NCCC3)=C2c1ccc(O[C@H]2CCN(CCCF)C2)cc1` [Example 158, 5-[4-[(3S)-1-(3-fluoropropyl)pyrrolidin-3-yl]oxyphenyl]-6-(1,2,3,4-tetrahydroquinolin-7-yl)-8,9-dihydro-7H-benzo[7]annulen-2-ol], 0.5 nM.
As for `O=C(O)c1ccc2c(c1)CCCC(c1ccccc1)=C2c1ccc(O[C@H]2CCN(CCCF)C2)cc1` [Example 217, 5-{4-[(S)-1-(3-Fluoro-propyl)-pyrrolidin-3-yloxy]-phenyl}-6-phenyl-8,9-dihydro-7H-benzocycloheptene-2-carboxylic acid], the figure is 0.3 nM; as for `Oc1ccc2c(c1F)CCCC(c1ccc(OC(F)F)cc1)=C2c1ccc(O[C@H]2CCN(CCCF)C2)cc1` [Example 143, 6-[4-(difluoromethoxy)phenyl]-1-fluoro-5-[4-[(3S)-1-(3-fluoropropyl)pyrrolidin-3-yl]oxyphenyl]-8,9-dihydro-7H-benzo[7]annulen-2-ol], 0.7 nM; as for `CCOc1ccc(C2=C(c3ccc(O[C@H]4CCN(CCCF)C4)cc3)c3ccc(O)c(F)c3CCC2)c(F)n1` [Example 82, 6-(6-ethoxy-2-fluoro-3-pyridyl)-1-fluoro-5-[4-[(3S)-1-(3-fluoropropyl)pyrrolidin-3-yl]oxyphenyl]-8,9-dihydro-7H-benzo[7]annulen-2-ol], 0.8 nM.
With `CCOc1ccc(C2=C(c3ccc(O[C@H]4CCN(CCCF)C4)cc3)c3ccc(O)cc3CCC2)c(F)c1` [Example 42, 6-(4-ethoxy-2-fluoro-phenyl)-5-[4-[(3S)-1-(3-fluoropropyl)pyrrolidin-3-yl]oxyphenyl]-8,9-dihydro-7H-benzo[7]annulen-2-ol] the figure was 0.4 nM.
For `O=C(O)c1ccc2c(c1F)CCCC(c1ccc(Cl)cc1F)=C2c1ccc(O[C@H]2CCN(CCCF)C2)cc1` [Example 212, 6-(4-chloro-2-fluoro-phenyl)-1-fluoro-5-[4-[(3S)-1-(3-fluoropropyl)pyrrolidin-3-yl]oxyphenyl]-8,9-dihydro-7H-benzo[7]annulene-2-carboxylic acid], the IC50 turned out to be 4 nM.
For `CCOc1ncc(C2=C(c3ccc(O[C@H]4CCN(CCCF)C4)cc3)c3ccc(O)cc3CCC2)cc1C(F)(F)F` [Example 132, 6-[6-ethoxy-5-(trifluoromethyl)-3-pyridyl]-5-[4-[(3S)-1-(3-fluoropropyl)pyrrolidin-3-yl]oxyphenyl]-8,9-dihydro-7H-benzo[7]annulen-2-ol], the IC50 was 0.7 nM.
For `N#Cc1ccc(C2=C(c3ccc(O[C@H]4CCN(CCCF)C4)cc3)c3ccc(O)cc3CCC2)cc1F` [Example 85], the IC50 worked out at 0.8 nM.
With `Oc1ccc2c(c1)CCCC(c1cccc3[nH]ccc13)=C2c1ccc(O[C@H]2CCN(CCCF)C2)cc1` [Example 20, 5-[4-[(3S)-1-(3-fluoropropyl)pyrrolidin-3-yl]oxyphenyl]-6-(1H-indol-4-yl)-8,9-dihydro-7H-benzo[7]annulen-2-ol], the IC50 amounted to 5 nM.
Regarding `COc1ccc(C2=C(c3ccc(O[C@H]4CCN(CCCF)C4)cc3)c3ccc(O)cc3CCC2)c(C)n1` [Example 97, 5-[4-[(3S)-1-(3-fluoropropyl)pyrrolidin-3-yl]oxyphenyl]-6-(6-methoxy-2-methyl-3-pyridyl)-8,9-dihydro-7H-benzo[7]annulen-2-ol], the IC50 came to 0.2 nM.
For the molecule `Oc1ccc2c(c1F)CCCC(c1ccc(OC(F)(F)F)cc1F)=C2c1ccc(O[C@H]2CCN(CCCF)C2)cc1` [Example 160, 1-fluoro-5-[4-[(3S)-1-(3-fluoropropyl)pyrrolidin-3-yl]oxyphenyl]-6-[2-fluoro-4-(trifluoromethoxy)phenyl]-8,9-dihydro-7H-benzo[7]annulen-2-ol], the IC50 was 0.7 nM.
As for `Oc1ccc2c(c1)CCCC(c1ccc3[nH]ccc3c1)=C2c1ccc(O[C@H]2CCN(CCCF)C2)cc1` [Example 12, 5-[4-[(3S)-1-(3-fluoropropyl)pyrrolidin-3-yl]oxyphenyl]-6-(1H-indol-5-yl)-8,9-dihydro-7H-benzo[7]annulen-2-ol], the IC50 worked out at 28 nM.
With `CCOc1cc(C)c(C2=C(c3ccc(O[C@H]4CCN(CCCF)C4)cc3)c3ccc(O)cc3CCC2)cc1C` [Example 100, 6-(4-ethoxy-2,5-dimethyl-phenyl)-5-[4-[(3S)-1-(3-fluoropropyl)pyrrolidin-3-yl]oxyphenyl]-8,9-dihydro-7H-benzo[7]annulen-2-ol] the figure was 1 nM; with `Cc1cc(OC(F)F)ccc1C1=C(c2ccc(O[C@H]3CCN(CCCF)C3)cc2)c2ccc(O)cc2CCC1` [Example 145, 6-[4-(difluoromethoxy)-2-methyl-phenyl]-5-[4-[(3S)-1-(3-fluoropropyl)pyrrolidin-3-yl]oxyphenyl]-8,9-dihydro-7H-benzo[7]annulen-2-ol], 0.3 nM.
As for `O=C(O)c1ccc2c(c1)CCCC(c1cccc(F)c1Cl)=C2c1ccc(O[C@H]2CCN(CCCF)C2)cc1` [Example 216, 6-(2-Chloro-3-fluoro-phenyl)-5-{4-[(S)-1-(3-fluoro-propyl)-pyrrolidin-3-yloxy]-phenyl}-8,9-dihydro-7H-benzocycloheptene-2-carboxylic acid], the figure is 1 nM; as for `CN1CC=C(C2=C(c3ccc(O[C@H]4CCN(CCCF)C4)cc3)c3ccc(O)cc3CCC2)CC1` [Example 25, 5-[4-[(3S)-1-(3-fluoropropyl)pyrrolidin-3-yl]oxyphenyl]-6-(1-methyl-3,6-dihydro-2H-pyridin-4-yl)-8,9-dihydro-7H-benzo[7]annulen-2-ol], 48 nM.
Turning to `Oc1ccc2c(c1)CCCC(c1ccc(O)nc1F)=C2c1ccc(O[C@H]2CCN(CCCF)C2)cc1` [Example 171, 6-fluoro-5-[5-[4-[(3S)-1-(3-fluoropropyl)pyrrolidin-3-yl]oxyphenyl]-2-hydroxy-8,9-dihydro-7H-benzo[7]annulen-6-yl]pyridin-2-ol], the IC50 was 0.9 nM.
